According to PubChem BioAssay AID1347055 (National Center for Advancing Translational Sciences (NCATS), 2019):
Where “and” joins values, the source holds several entries; their conditions need not be identical. Equal values may be shown once. The whole screen tested about 54,000 compounds, of which about 120 (0.22%) were called active. Inconclusive means that the source gave no clear call. Such entries were picked first, then a sample of the others. Calls come from the whole dose curve; as a rule, active = well fitted inhibition curve with a large enough effect; inconclusive = small, poorly fitted or top-dose-only effect, or effect the other way; inactive = flat fitted curve, though single readings scatter. Potencies of inconclusive entries are doubtful fits and often do not repeat.

target: Fumarate hydratase, mitochondrial (Homo sapiens) (UniProt P07954); experiment: Identification of activators of human fumarate hydratase by quantitative high-throughput screening; conditions: FH coupled MDH/diaphorase resazurin fluorescence, 15 min; series mostly up to 53.3 µM; note: the screen sought activators but most active calls are inhibition curves; nearly all actives have a fitted effect of over 45% in size
From the text: Fumarate hydratase (FH) is a metabolic enzyme that is part of the Krebs-cycle, and reversibly catalyzes the hydration of fumarate to malate. Mutations of the FH gene have been associated with fumarate hydratase deficiency (FHD), hereditary leiomyomatosis, renal cell cancer (HLRCC), and other diseases. Currently there are no high-quality small molecule probes for studying human fumarate hydratase. To address this, we developed a quantitative high throughput screening (qHTS) FH assay and screened a total of 57,037 compounds in dose-response. While no inhibitors of FH were confirmed, a series of phenyl-pyrrolo-pyrimidine-diones (12 compounds) were identified as activators of human fumarate hydratase. […] The binding of two compounds from the series to human fumarate hydratase was confirmed by microscale thermophoresis. The low hit rate in this screening campaign confirmed that FH is a "tough target" to modulate, and the small molecule activators of human fumarate hydratase reported here may serve as a starting point for further optimization and development into cellular probes of human FH and potential drug candidates.
For primary high-throughput screen, 3 ul of FH solution (containing 13.33nM human fumarate hydratase, 13.33IU/ml malic dehydrogenase, 0.2mM NAD, 0.067mg/ml diaphorase and 0.067mM resazurin in the assay buffer (50 mM Tris pH 8.0, 5 mM MgCl2, 0.01% Brij 3) was dispensed into each well in a black solid bottom 1536-well assay plate (Greiner Bio-One) using a BioRAPTR FRD dispenser (Beckman Coulter, Brea, CA). A 1536-well pintool dispenser outfitted with 20 nl pins (Wako Automation, San Diego, CA) was used to transfer 20 nL of DMSO-solubilized compound (Cherrypick plates) to each 1536-well assay plate. Each compound was screened at five concentrations: 15 nM, 151 nM, 1.5 uM, 15.4 uM, 76.9 uM. Following compound transfer, plates were incubated in room temperature for 10 minutes. 1 uL of substrate solution containing fumaric acid (160 uM) was dispensed via BioRAPTR FRD to initiate the reaction. Plates were immediately transferred to a ViewLux microplate imager (PerkinElmer, Waltham, MA), and any resulting resorufin fluorescence was measured (exitation/emission, 525/598 nm) at 0 and 15 minutes. The exposure time is 1 second. Fluorescence from each well was normalized using enzyme-free and DMSO-treated control wells on each plate, and changes in fluorescence (delta RFU) were calculated using the difference in fluorescent signal for each well at 15 minutes versus 0 minutes.
Potency is the fitted concentration of half-maximal effect; tags give direction and shape of the fitted curve.

Compound | Potency
Oc1cc(Cl)ccc1Oc1ccc(Cl)cc1Cl | inconclusive: 57.7 µM [inhibitor, partial curve, poor fit] and inconclusive: 34.7 µM [inhibitor, single point]
O=C1CCCN1CC#CCN1CCCC1 | inconclusive: 5.62 µM [activator, full curve]
CC(=O)O[C@H]1C(=O)[C@]2(C)C(O)C[C@H]3OC[C@@]3(OC(C)=O)[C@H]2[C@H](OC(=O)c2ccccc2)[C@]2(O)C[C@H](O)C(C)=C1C2(C)C (some centres undefined) | inactive
NC(Cc1cc(O)c(O)cc1O)C(=O)O (centres undefined) | inconclusive: 28.2 µM [inhibitor, single point]
CN(N=O)c1cc(O)ccc1O | active: 2.24 µM
CC1=C2[C@H]3OC(=O)[C@@H](C)[C@@H]3CC[C@@]2(C)C=CC1=O | inactive
COc1ccc(C23CCC(=O)C=C2N(C)CC3)cc1OC (centres undefined) | inactive
Oc1ccc2c3c1O[C@H]1[C@H](N(CCCl)CCCl)CC[C@@]4(O)[C@@H](C2)N(CC2CC2)CC[C@]314 | inactive
COC1=CC(C)=C[C@@H](C)[C@@H](O)[C@@H](C)CC(C)=CC=C[C@H](OC)[C@H]([C@@H](C)[C@@H](O)[C@H](C)[C@@]2(O)C[C@@H](O)[C@H](C)[C@@H](C(C)C)O2)OC1=O | inactive
CCN1C[C@]2(COC)[C@H](O)C[C@H](OC)[C@]34[C@@H]5C[C@]6(O)[C@H](OC(=O)c7ccccc7)[C@@H]5[C@@](O)([C@H]([C@H](OC)[C@H]23)[C@@H]14)[C@@H](O)[C@@H]6OC | inactive
Fc1ccc(C(OCCN2CCN(CCCc3ccccc3)CC2)c2ccc(F)cc2)cc1 | inconclusive: 20 µM [inhibitor, partial curve, poor fit]
CC[C@H](C)[C@@H]([C@@H](CC(=O)N1CCC[C@H]1[C@H](OC)[C@@H](C)C(=O)N[C@@H](Cc1ccccc1)c1nccs1)OC)N(C)C(=O)[C@@H](NC(=O)C(C)(C)N)C(C)C | inactive
O=C(N/N=C/c1ccc([N+](=O)[O-])o1)c1cc([N+](=O)[O-])cc([N+](=O)[O-])c1O | inconclusive: 24.6 µM [inhibitor, single point]
C[C@H](CN1CCOCC1)C(C(=O)N1CCCC1)(c1ccccc1)c1ccccc1 | inactive
Cc1ccc(Cn2cccc(C(=O)Nc3ccc4c(c3)OCCO4)c2=O)cc1 | inconclusive: 44.7 µM [inhibitor, single point]
COC1CC(O[C@H]2CC[C@]3(C=O)C4CC[C@]5(C)[C@@H](C6=CC(=O)OC6)CC[C@]5(O)[C@@H]4CC[C@]3(O)C2)OC(C)C1O[C@@H]1O[C@H](CO)[C@@H](O)[C@H](O)[C@H]1O (some centres undefined) | inactive
CCC(C)(C)c1ccc(O)cc1 | inactive
COc1ccc2c(c[n+](C)c3c4cc5c(cc4ccc23)OCO5)c1OC | inconclusive: 17.8 µM [inhibitor, partial curve]
CNc1ccc2oc(C[C@H]3O[C@@]4(CC[C@H]3C)O[C@H]([C@H](C)C(=O)c3ccc[nH]3)[C@H](C)C[C@H]4C)nc2c1C(=O)O | inconclusive: 31.6 µM [inhibitor, single point]
CCCN1CCc2cccc3c2[C@H]1Cc1ccc(O)c(O)c1-3 | active: 7.94 µM
CCCCCCCCc1ccc(O)cc1 | inconclusive: 28.5 µM [inhibitor, partial curve]
COCC1OC(=O)c2coc3c2C1(C)C1=C(C3=O)C2CCC(=O)C2(C)CC1OC(C)=O (centres undefined) | inactive

Compound | Potency
O=C(O)COc1ccccc1 | inactive
Cc1ccc(NC(=O)CN2C(=O)CN=C(c3ccccc3)c3ccccc32)cc1Cl | inconclusive: 50.1 µM [inhibitor, single point]
N#Cc1cc2c(nc1SCC(=O)Nc1cccc(C(F)(F)F)c1)C1CCN2CC1 | inactive
CN(C(=O)CN1C(=O)COc2cc(Cl)c(Cl)cc21)[C@@H](CN1CCCC1)c1ccc(-c2cccc(C(N)=O)c2)cc1 | inconclusive: 31.6 µM [inhibitor, single point]
CO[C@H]1[C@H](O)[C@H](O[C@H]2CC[C@]3(C=O)C4CC[C@]5(C)[C@H](C6=CC(=O)OC6)CC[C@]5(O)C4CC[C@@H]3C2)O[C@@H](C)[C@@H]1O (some centres undefined) | inactive
CN1CC[C@@]2(C)c3cc(OC(=O)Nc4ccccc4)ccc3N(C)[C@@H]12 | inconclusive: 35.5 µM [inhibitor, single point]
CCCCCCCCCCCCCC(=O)O[C@@H]1[C@@H](C)[C@@]2(O)[C@@H](C=C(CO)C[C@@]3(O)C(=O)C(C)=C[C@@H]23)C2C(C)(C)[C@@]21OC(C)=O (some centres undefined) | inconclusive: 35.5 µM [inhibitor, single point]
NCCCCCNC1(c2ccccc2)CCCCC1 | inactive
CN[C@@H]1C[C@H]2O[C@@](C)([C@@H]1OC)n1c3ccccc3c3c4c(c5c6ccccc6n2c5c31)C(=O)NC4 | inconclusive: 28.2 µM [inhibitor, single point]
O=C(Nc1ccc2c(c1)OCCO2)c1cccn(Cc2ccccc2)c1=O | inconclusive: 35.5 µM [inhibitor, partial curve, poor fit]
Nc1ccccc1 | inactive
Cc1cc(SCc2sc(-c3ccc(C(F)(F)F)c(F)c3)nc2C)ccc1OCC(=O)O | inconclusive: 35.5 µM [inhibitor, single point]
COc1ccc2c(c1)/C(=C/c1cnc[nH]1)C(=O)N2 | inactive
Cc1ccccc1-c1nc(CN2C(=O)CN=C(c3ccccc3)c3ccccc32)c(C)o1 | inconclusive: 39.8 µM [inhibitor, partial curve, poor fit]
Cc1c(Cl)c(OCC(=O)N2CCN(C)CC2)nc2sc(C(=O)NC3CC3)c(N)c12 | inactive
Cc1cc(C)cc(NC(=O)CN2C(=O)CN=C(c3ccccc3)c3cc(Cl)ccc32)c1 | inconclusive: 44.7 µM [inhibitor, partial curve, poor fit]
[Cl-].[Cl][Pt].[NH2-].[NH2-].c1ccncc1 | inconclusive: 20 µM [inhibitor, partial curve]
Oc1ccc([C@H]2CNCc3c2ccc(O)c3O)cc1O | active: 30.9 µM
CCC1C(=O)OCC1Cc1cncn1C (centres undefined) | inactive
COC(=O)N1CCN(C(=O)Cc2ccc(Cl)c(Cl)c2)[C@@H](CN2CCCC2)C1 | inconclusive: 28.2 µM [activator, partial curve]
Cc1cccc(OCC(=O)N2CCN(Cc3cc(=O)n4nc(-c5ccccc5Cl)sc4n3)CC2)c1 | inconclusive: 56.2 µM [inhibitor, partial curve, poor fit]
CC(CC(C(N)=O)(c1ccccc1)c1ccccc1)N(C)C (centres undefined) | inactive

Compound | Potency
C[C@]12CC[C@H](O[C@@H]3O[C@H](CO)[C@@H](O)[C@H](O)[C@H]3O[C@@H]3O[C@H](CO)[C@@H](O)[C@H](O)[C@H]3O)CC1=CC[C@@H]1[C@@H]2CC[C@]2(C)[C@@H](C3=CC(=O)OC3)CC[C@]12O | inactive
CCCN1CCc2cc(O)cc3c2[C@H]1Cc1ccc(O)c(O)c1-3 | active: 14.1 µM
COc1ccc(C)cc1NC(=O)c1cccn(Cc2cccc([N+](=O)[O-])c2)c1=O | inconclusive: 22.4 µM [inhibitor, partial curve, poor fit]
c1ccc2c(N3CCNCC3)cccc2c1 | inactive
Cc1cccc(NC(=O)N[C@H]2CN(C)c3ccccc3C(c3ccccc3)=N2)c1 | inactive
O=C(Nc1ccc2c(c1)OCCO2)c1cccn(Cc2cccc(F)c2)c1=O | inconclusive: 50.1 µM [inhibitor, partial curve, poor fit]
CN[C@@H]1C[C@@H](c2ccc(Cl)c(Cl)c2)c2ccccc21 | inconclusive: 31.6 µM [inhibitor, single point]
CC(C(=O)c1ccccc1)N(C)C (centres undefined) | inactive
CC1Oc2cc3c(-c4c(O)cc(O)c5c(O)c6c(cc45)OC(C)C(C)C6=O)c(O)cc(O)c3c(O)c2C(=O)C1C (centres undefined) | inconclusive: 28.2 µM [inhibitor, single point]
C[C@H](N)CN1CCc2ccc(Br)cc21 | inconclusive: 8.91 µM [activator, partial curve]
Nc1ccc(N=Nc2ccccc2)cc1 | inconclusive: 28.2 µM [inhibitor, partial curve]
C[C@H](N)[C@H](O)c1ccc(O)c(O)c1 | inactive
O=[N+]([O-])/C=C/c1ccc2c(c1)OCO2 | inconclusive: 14.1 µM [inhibitor, partial curve]
CC1=CC2/C=C(\C)CCCC(O)/C=C/C(=O)OC23C(=O)NC(CC(C)C)C3C1C (centres undefined) | inactive
CN(N=O)c1ccc(O)c(O)c1 | inconclusive: 14.1 µM [inhibitor, partial curve, poor fit]
CC(C)=CCC[C@]1(C)C=Cc2c(O)c3c(c(CC=C(C)C)c2O1)O[C@]12C(=C[C@@H]4CC1C(C)(C)O[C@@]2(C/C=C(/C)C(=O)O)C4=O)C3=O | inconclusive: 31.6 µM [inhibitor, single point]
C=CC[C@]1(O)CC[C@H]2[C@@H]3CCC4=CC(=O)CCC4=C3C=C[C@@]21C | inactive
COc1ccc(NC(=O)CCc2nc(C3=CCN(Cc4cccc(Cl)c4)CC3)no2)cc1OC | inconclusive: 31.6 µM [inhibitor, single point]
Cc1ccc(-n2nc(C)c3c2NC(=O)CSC3c2ccc(O)cc2)cc1Cl (centres undefined) | inconclusive: 15.8 µM [inhibitor, partial curve, poor fit]
CNCCc1ccc(O)c(O)c1 | inconclusive: 17.8 µM [activator, partial curve]
